Assay results taken from publication PMC6919601, “Identification of Plasmodium dipeptidyl aminopeptidase allosteric inhibitors by high throughput screening” (PLoS ONE, 2019).
The campaign covered roughly 110,000 compounds. About 230 (0.21%) showed an effect of 50% or more. The list shows a part of the results.

Molecular target: DPAP1 (Plasmodium falciparum, UniProt Q8IIJ9)
Assay: primary screen, percent inhibition; read by cleavage of a fluorogenic dipeptide substrate; higher = more effect of the substance
Parameters: species or system P. falciparum D10 trophozoite lysates; single well
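Also: 30 min substrate incubation versus DMSO and 10 µM JCP410 controls.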

Chain of DPAP1 (Q8IIJ9 whole entry, looked up): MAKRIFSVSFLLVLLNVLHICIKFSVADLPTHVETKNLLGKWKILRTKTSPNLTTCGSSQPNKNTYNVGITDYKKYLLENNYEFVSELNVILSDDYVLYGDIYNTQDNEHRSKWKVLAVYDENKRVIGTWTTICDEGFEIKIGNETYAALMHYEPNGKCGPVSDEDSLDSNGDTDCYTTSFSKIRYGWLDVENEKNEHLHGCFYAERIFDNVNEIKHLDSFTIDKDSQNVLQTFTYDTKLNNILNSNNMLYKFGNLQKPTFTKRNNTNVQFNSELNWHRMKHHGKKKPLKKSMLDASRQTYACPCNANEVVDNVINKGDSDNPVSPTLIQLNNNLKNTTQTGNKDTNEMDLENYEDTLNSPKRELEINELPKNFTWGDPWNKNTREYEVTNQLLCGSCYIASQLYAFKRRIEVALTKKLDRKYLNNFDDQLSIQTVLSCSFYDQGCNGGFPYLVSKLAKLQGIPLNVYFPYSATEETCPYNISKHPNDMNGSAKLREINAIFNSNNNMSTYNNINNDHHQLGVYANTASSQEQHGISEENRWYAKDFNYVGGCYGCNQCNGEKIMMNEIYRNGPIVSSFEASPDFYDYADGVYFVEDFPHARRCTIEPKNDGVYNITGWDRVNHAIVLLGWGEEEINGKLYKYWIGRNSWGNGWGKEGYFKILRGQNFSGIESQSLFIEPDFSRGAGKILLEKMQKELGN

Structure (SMILES)	% Inhibition @ 10 uM [%]
Nc1nc(N)c2cc(OCc3ccc(Cl)c(Cl)c3)ccc2n1	-4.39
CCOCCCNC(=O)c1ccc(CSc2nc3cccnc3n2Cc2ccc(OC)cc2)cc1	9.02
CCSc1nc(O)c2c(n1)N=C1CCCC(O)=C1C2c1ccc(Br)cc1 (stereo not drawn)	2.1
Cc1ccccc1NC(=O)CSc1nc2cccnc2[nH]1	-3.39
CCOc1cccc2c1OC(c1ccc(C(=O)OC)cc1)N1N=C(c3cccc(OC)c3)CC21 (stereo not drawn)	0.238
COCCN1C(=O)c2oc3cc(C)cc(C)c3c(=O)c2C1c1ccc(O)c(OC)c1 (stereo not drawn)	3.27
O=c1c2cn[nH]c2[nH]c(=S)n1-c1ccc(F)c(Cl)c1	33
CCOc1ccc(N(C(C)C(=O)N2CCCCCC2)S(C)(=O)=O)cc1 (stereo not drawn)	2.44
COCCCNC(=O)CCCC(=O)n1nc(C)c2ccccc21	5.39
COc1ccc(C(=O)O)cc1COc1cccc(Cl)c1Cl	12.6
CCOc1ccccc1N1CCN(Cc2ccc3c(c2)c2ccccc2n3CC)CC1	-4.5
COc1cc(OC)c(OC)cc1CN1CCN(Cc2ccc(F)cc2)CC1	4.96
O=C(O)C1C2CCCCC2=C2CCCCC2C1C(=O)c1ccccc1 (stereo not drawn)	0.937
Cc1ccnc(NC(=O)c2ccccc2F)c1	5.44
CC(C)(C)c1ccc(C(=O)NCCc2cccs2)cc1	3.66
FC(F)(F)c1cc(-c2cccs2)nc2ncnn12	1.19
CCN1CCCC1CNC(=O)Cn1ncc2c1-c1ccccc1OC2 (stereo not drawn)	0.0579
COc1ccc(-c2cn3c(n2)sc2cc(C(=O)N4CCN(Cc5ccccc5)CC4)ccc23)cc1	16.6
COc1ccc(CNC(=O)/C(C#N)=C/c2cc(Br)ccc2O)cc1	1.42
O=C(Nc1ccc(S(=O)(=O)N2CCCCC2)cc1)C(c1ccccc1)c1ccccc1	-3.95
O=C(NCC(c1cccnc1)N1CCN(Cc2ccccc2)CC1)c1ccccc1 (stereo not drawn)	-7.29
COc1ccccc1N1CCN(C(=O)CN(c2cccc(F)c2)S(C)(=O)=O)CC1	-10.8
CCOC(=O)C1=C(CN2CCC(c3ccccc3)C2)NC(=O)NC1c1cccs1 (stereo not drawn)	3.22
Nc1cc(-c2ccccc2)nn1S(=O)(=O)c1c(F)c(F)c(F)c(F)c1F	-2.88
Cc1ccc(Cl)cc1NC(=O)COc1ccccc1	-3.03
CC(C)c1ccc(NC(=O)c2ccc(Cl)cc2)cc1	-0.192

Structure (SMILES)	% Inhibition @ 10 uM [%]
CN(CCCNC(=O)CCc1cn(C)c2ccccc12)C1CCCCC1	4.06
CCOc1ccc(N2C(=O)c3ccccc3NC2c2ccc(Br)cc2)cc1 (stereo not drawn)	-5.11
COc1ccc(C(C)=O)cc1N1C(=O)C2C3C=CC(CC3)C2C1=O (stereo not drawn)	2.17
CC(C)C[C@H](Nc1ccc([N+](=O)[O-])cc1)C(=O)NCC#N	-1.41
Cc1ccc(C(O)c2ccccc2)s1 (stereo not drawn)	3.2
O=C1NC(c2cccc(Br)c2)Nc2ccccc21 (stereo not drawn)	4.09
CC(=O)c1cc2c(cc1NC(=O)c1ccc(Br)cc1)OCO2	-1.98
COc1cccc2c1Oc1nc(-c3ccc(O)cc3)nc(O)c1C2	2.32
COc1ccc(/C=C/C(=O)NC2CCCCC2)cc1	-2.27
CC1=C(C#N)C(C(F)(F)F)(C(F)(F)F)NC(=O)N1	3.36
Cc1c(C(=O)NCCCC(=O)O)c(-c2ccccc2)nn1-c1ccccc1	-4.61
CC1=C(C(=O)Nc2ccccn2)C(c2cn(C)nc2C)C2=C(O)CCCC2=N1 (stereo not drawn)	1.43
NC(=O)C1CCN(CCCc2ccccc2)CC1	0.265
O=C(NC1CCCCCC1)c1ccc([N+](=O)[O-])o1	2.99
CCC(CC)C(=O)Nc1cc(OC)ccc1OC	5.25
CCOc1cc2c(cc1OCC)C(CN1C(=O)c3ccccc3C1=O)=NCC2	-6.35
O=C(NCC1COc2ccccc2O1)c1ccc(F)cc1 (stereo not drawn)	1.81
CNCC(O)CN1CCN(c2ccccc2OC)CC1 (stereo not drawn)	5.37
CCOC(=O)c1sc2nc3n(c(=O)c2c1C)CCC(C)CC3 (stereo not drawn)	1.48
CCOC(=O)/C=C(/C)N1N=C(/C=C/c2ccccc2)CC1c1ccccc1 (stereo not drawn)	-1.45
COc1ccc2[nH]c3c(=O)n(CCCC(=O)NC4CCCc5ccccc54)c(=S)[nH]c3c2c1 (stereo not drawn)	-0.495
CC1=C(C(=O)Nc2ccc(Br)cc2)C(c2cccc3ccccc23)NC(=O)N1 (stereo not drawn)	-10.9
Nc1c(-c2c[nH]c3ccccc23)c(-c2ccccc2)nn1-c1ccccc1	9.1
CC1=CC2=NC(=O)/C(=C\c3ccc(Br)o3)C(=N)N2O1	-5.34
CC(C)(C)C1CCC(OC(=O)CCC(=O)Nc2ccc([N+](=O)[O-])cc2)CC1 (stereo not drawn)	1.54
